Assay results published in patent US20240270806A1 (Chugai, published 2024).
Changes are numbered by the printed parent chain.

B1: Bivalent IL-12 fusion protein FP44 (other)
heavy: QVQLVQSGAEVKKPGSSVKVSCKASGGTFSDYYLHWSRQAPGQGLEWMGWIDPENGDTEYAPKFQGRVTITADESTSTAYMELSSLRSEDTAVYYCARNKELRYIDVWGQGTLVTVSSTSGSGRSATPRGASTKGPSVFPLAPCSKSTSGGTAALGCLVKDYFPEPVTVSWNSGALTSGVHTFPAVLQSSGLYSLSSVVTVPSSSLGTQTYICNVNHKPSNTKVDKRVGGGGSGGGGS[human IgG1 Fc with changes cut from this listing]GSGGSGGSGGSGGSGGSIWELKKDVYVVELDWVPDAPGEMVVLTCDTPEEDGITWTLDQSSEVLGSGKTLTIQVKEFGDAGQYTCHKGGEVLSHSLLLLHKKEDGIWSTDILKDQKEPKNKTFLRCEAKNYSGRFTCWWLTTISTDLTFSVKSSRGSSDPQGVTCGAATLSAERVRGDNKEYEYSVECQEDSACPAAEESLPIEVMVDAVHKLKYENYTSSFFIRDIIKPDPPKNLQLKPLKNSRQVEVSWEYPDTWSTPHSYFSLTFCVQVQGKHKEKKDRVFTDKTSATVICRKNASISVRAQDRYYSSSWSEWASVPCSGGGGSGGGGSGGGGSGGGGSNLPVATPDPGMFPCLHHSQNLLRAVSNMLQKARQTLEFYPCTSEEIDHEDITKDKTSTVEACLPLELTKNESCLNSRETSFITNGSCLASRKTSFMMALCLSSIYEDLKMYQVEFKTMNAKLLMDPKRQIFLDQNMLAVIDELMQALNFNSETVPQKSSLEEPDFYKTKIKLCILLHAFRIRAVTIDRVMSYLNAS
light: DIVMTQSPLSLPVTPGEPASISCRASQSISINLHWYQQKPGQAPRQLIAFASQSISGVPSRFSGSGSGTDFTLTISSLQPEDFATYYCQQSNSFPLTFGQGTKVEIKRTVAAPSVFIFPPSDEQLKSGTASVVCLLNNFYPREAKVQWKVDNALQSGNSQESVTEQDSKDSTYSLSSTLTLSKADYEKHKVYACEVTHQGLSSPVTKSFNRGEC
B2: Bivalent IL-12 fusion protein FP45 (other)
heavy: QVQLVQSGAEVKKPGSSVKVSCKASGGTFSDYYLHWSRQAPGQGLEWMGWIDPENGDTEYAPKFQGRVTITADESTSTAYMELSSLRSEDTAVYYCARNKELRYIDVWGQGTLVTVSSTSGSGRSATPRGASTKGPSVFPLAPCSKSTSGGTAALGCLVKDYFPEPVTVSWNSGALTSGVHTFPAVLQSSGLYSLSSVVTVPSSSLGTQTYICNVNHKPSNTKVDKRVGGGGSGGGGS[human IgG1 Fc with changes cut from this listing]GSGGSGGSGGSGGSGGSIWELKKDVYVVELDWWPDAPGEMVVLTCDTPEEDGITWTLDQSSEVLGSGKTLTIQVKEFGDAGQYTCHKGGEVLSHSLLLLHKKEDGIWSTDILKDQKEPKNKTFLRCEAKNYSGRFTCWWLTTISTDLTFSVKSSRGSSDPQGVTCGAATLSAERVRGDNKEYEYSVECQEDSACPAAEESLPIEVMVDAVHKLKYENYTSSFFIRDIIKPDPPKNLQLKPLKNSRQVEVSWEYPDTWSTPHSYFSLTFCVQVQGKHKEKKDRVFTDKTSATVICRKNASISVRAQDRYYSSSWSEWASVPCSGGGGSGGGGSGGGGSGGGGSNLPVATPDPGMFPCLHHSQNLLRAVSNMLQKARQTLEFYPCTSEEIDHEDITKDKTSTVEACLPLELTKNESCLNSRETSFITNGSCLASRKTSFMMALCLSSIYEDLKMYQVEFKTMNAKLLMDPKRQIFLDQNMLAVIDELMQALNFNSETVPQKSSLEEPDFYKTKIKLCILLHAFRIRAVTIDRVMSYLNAS
light: B1 light
B3: Bivalent IL-12 fusion protein FP46 (other)
heavy: QVQLVQSGAEVKKPGSSVKVSCKASGGTFSDYYLHWSRQAPGQGLEWMGWIDPENGDTEYAPKFQGRVTITADESTSTAYMELSSLRSEDTAVYYCARNKELRYIDVWGQGTLVTVSSTSGSGRSATPRGASTKGPSVFPLAPCSKSTSGGTAALGCLVKDYFPEPVTVSWNSGALTSGVHTFPAVLQSSGLYSLSSVVTVPSSSLGTQTYICNVNHKPSNTKVDKRVGGGGSGGGGS[human IgG1 Fc with changes cut from this listing]GSGGSGGSGGSGGSGGSIWELKKDVYVVELDWPPDAPGEMVVLTCDTPEEDGITWTLDQSSEVLGSGKTLTIQVKEFGDAGQYTCHKGGEVLSHSLLLLHKKEDGIWSTDILKDQKEPKNKTFLRCEAKNYSGRFTCWWLTTISTDLTFSVKSSRGSSDPQGVTCGAATLSAERVRGDNKEYEYSVECQEDSACPAAEESLPIEVMVDAVHKLKYENYTSSFFIRDIIKPDPPKNLQLKPLKNSRQVEVSWEYPDTWSTPHSYFSLTFCVQVQGKHKEKKDRVFTDKTSATVICRKNASISVRAQDRYYSSSWSEWASVPCSGGGGSGGGGSGGGGSGGGGSNLPVATPDPGMFPCLHHSQNLLRAVSNMLQKARQTLEFYPCTSEEIDHEDITKDKTSTVEACLPLELTKNESCLNSRETSFITNGSCLASRKTSFMMALCLSSIYEDLKMYQVEFKTMNAKLLMDPKRQIFLDQNMLAVIDELMQALNFNSETVPQKSSLEEPDFYKTKIKLCILLHAFRIRAVTIDRVMSYLNAS
light: B1 light with S30V
B4: Bivalent IL-12 fusion protein FP47 (other)
heavy: QVQLVQSGAEVKKPGSSVKVSCKASGGTFSDYYLHWSRQAPGQGLEWMGWIDPENGDTEYAPKFQGRVTITADESTSTAYMELSSLRSEDTAVYYCARNKELRYIDVWGQGTLVTVSSYSATGRSANPRGASTKGPSVFPLAPCSKSTSGGTAALGCLVKDYFPEPVTVSWNSGALTSGVHTFPAVLQSSGLYSLSSVVTVPSSSLGTQTYICNVNHKPSNTKVDKRVGGGGSGGGGS[human IgG1 Fc with changes cut from this listing]GSGGSGGSGGSGGSGGSIWELKKDVYVVELDWPPDAPGEMVVLTCDTPEEDGITWTLDQSSEVLGSGKTLTIQVKEFGDAGQYTCHKGGEVLSHSLLLLHKKEDGIWSTDILKDQKEPKNKTFLRCEAKNYSGRFTCWWLTTISTDLTFSVKSSRGSSDPQGVTCGAATLSAERVRGDNKEYEYSVECQEDSACPAAEESLPIEVMVDAVHKLKYENYTSSFFIRDIIKPDPPKNLQLKPLKNSRQVEVSWEYPDTWSTPHSYFSLTFCVQVQGKHKEKKDRVFTDKTSATVICRKNASISVRAQDRYYSSSWSEWASVPCSGGGGSGGGGSGGGGSGGGGSNLPVATPDPGMFPCLHHSQNLLRAVSNMLQKARQTLEFYPCTSEEIDHEDITKDKTSTVEACLPLELTKNESCLNSRETSFITNGSCLASRKTSFMMALCLSSIYEDLKMYQVEFKTMNAKLLMDPKRQIFLDQNMLAVIDELMQALNFNSETVPQKSSLEEPDFYKTKIKLCILLHAFRIRAVTIDRVMSYLNAS
light: B1 light
B5: Bivalent IL-12 fusion protein FP48 (other)
heavy: QVQLVQSGAEVKKPGSSVKVSCKASGGTFSDYYLHWSRQAPGQGLEWMGWIDPENGDTEYAPKFQGRVTITADESTSTAYMELSSLRSEDTAVYYCARNKELRYIDVWGQGTLVTVSSYSATGRSANPRGASTKGPSVFPLAPCSKSTSGGTAALGCLVKDYFPEPVTVSWNSGALTSGVHTFPAVLQSSGLYSLSSVVTVPSSSLGTQTYICNVNHKPSNTKVDKRVGGGGSGGGGS[human IgG1 Fc with changes cut from this listing]GSGGSGGSGGSGGSGGSIWELKKDVYVVELDWPPDAPGEMVVLTCDTPEEDGITWTLDQSSEVLGSGKTLTIQVKEFGDAGQYTCHKGGEVLSHSLLLLHKKEDGIWSTDILKDQKEPKNKTFLRCEAKNYSGRFTCWWLTTISTDLTFSVKSSRGSSDPQGVTCGAATLSAERVRGDNKEYEYSVECQEDSACPAAEESLPIEVMVDAVHKLKYENYTSSFFIRDIIKPDPPKNLQLKPLKNSRQVEVSWEYPDTWSTPHSYFSLTFCVQVQGKHKEKKDRVFTDKTSATVICRKNASISVRAQDRYYSSSWSEWASVPCSGGGGSGGGGSGGGGSGGGGSNLPVATPDPGMFPCLHHSQNLLRAVSNMLQKARQTLEFYPCTSEEIDHEDITKDKTSTVEACLPLELTKNESCLNSRETSFITNGSCLASRKTSFMMALCLSSIYEDLKMYQVEFKTMNAKLLMDPKRQIFLDQNMLAVIDELMQALNFNSETVPQKSSLEEPDFYKTKIKLCILLHAFRIRAVTIDRVMSYLNAS
light: B1 light with S30V
B6: Bivalent IL-12 fusion protein FP28 (other)
heavy: QVQLVQSGAEVKKPGSSVKVSCKASGGTFSDYYLHWSRQAPGQGLEWMGWIDPENGDTEYAPKFQGRVTITADESTSTAYMELSSLRSEDTAVYYCARNKELRYIDVWGQGTLVTVSSTSGSGRSATPRGASTKGPSVFPLAPCSKSTSGGTAALGCLVKDYFPEPVTVSWNSGALTSGVHTFPAVLQSSGLYSLSSVVTVPSSSLGTQTYICNVNHKPSNTKVDKRVGGGGSGGGGS[human IgG1 Fc with changes cut from this listing]GSGGSGGSGGSGGSGGSIWELKKDVYVVELDWFPDAPGEMVVLTCDTPEEDGITWTLDQSSEVLGSGKTLTIQVKEFGDAGQYTCHKGGEVLSHSLLLLHKKEDGIWSTDILKDQKEPKNKTFLRCEAKNYSGRFTCWWLTTISTDLTFSVKSSRGSSDPQGVTCGAATLSAERVRGDNKEYEYSVECQEDSACPAAEESLPIEVMVDAVHKLKYENYTSSFFIRDIIKPDPPKNLQLKPLKNSRQVEVSWEYPDTWSTPHSYFSLTFCVQVQGKHKEKKDRVFTDKTSATVICRKNASISVRAQDRYYSSSWSEWASVPCSGGGGSGGGGSGGGGSGGGGSNLPVATPDPGMFPCLHHSQNLLRAVSNMLQKARQTLEFYPCTSEEIDHEDITKDKTSTVEACLPLELTKNESCLNSRETSFITNGSCLASRKTSFMMALCLSSIYEDLKMYQVEFKTMNAKLLMDPKRQIFLDQNMLAVIDELMQALNFNSETVPQKSSLEEPDFYKTKIKLCILLHAFRIRAVTIDRVMSYLNAS
light: B1 light

What follows are binders tested against Human IL-12 receptor (human IL-12Rb1 and IL-12Rb2) (human, UniProt P42701 24-662; Q99665 24-862) (assay: cell-based or functional assay).
B1 was tested, and the “Fold change (window), IL-12 luciferase assay” value (from here on “Fold change (window)”) was 33.9 fold. For B2, the “Fold change (window)” value was 67.2 fold. With B3 the “Fold change (window)” value was 498 fold. For B4, the “Fold change (window)” value was 585 fold. For B5, the “Fold change (window)” value was 391 fold. With B6 the “Fold change (window)” value was 81 fold.
